Measurements from PubChem BioAssay AID485344 (National Center for Advancing Translational Sciences (NCATS), 2010).
Hit rate of the full screen: of about 340,000 compounds, about 6,900 (2%) were called active. Cut-off read from the data, not from the text of the source: active = inhibition above about 30%; inactive = below that, where a call was filed. The list shows a part of the results, in another mix than the full data. The source gives no active or inactive call for entries shown without one.
Note: 0% is about no effect.

The molecules below were run against D(2) dopamine receptor (Homo sapiens) (UniProt P14416) (assay: HTS Assay for Allosteric Antagonists of the Human D2 Dopamine Receptor: Primary Screen for Antagonists). Conditions: HEK293 TREx D2 cells, calcium flux, dopamine EC80; at 10 µM; stronger effect = higher value.
Sequence of UniProt P14416 (P14416 whole entry, looked up): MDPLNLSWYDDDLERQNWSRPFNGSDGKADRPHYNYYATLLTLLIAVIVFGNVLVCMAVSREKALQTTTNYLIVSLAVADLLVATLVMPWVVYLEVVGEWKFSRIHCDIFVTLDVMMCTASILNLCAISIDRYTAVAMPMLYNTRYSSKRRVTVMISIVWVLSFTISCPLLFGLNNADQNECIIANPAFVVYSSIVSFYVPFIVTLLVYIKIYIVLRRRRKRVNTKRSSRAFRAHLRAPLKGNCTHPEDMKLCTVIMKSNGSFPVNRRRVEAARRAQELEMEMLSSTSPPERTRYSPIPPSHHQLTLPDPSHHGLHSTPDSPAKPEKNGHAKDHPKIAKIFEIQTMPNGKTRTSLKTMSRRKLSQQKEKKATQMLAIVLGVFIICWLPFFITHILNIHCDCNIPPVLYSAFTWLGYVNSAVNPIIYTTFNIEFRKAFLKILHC
In short: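 Cells plated overnight at 30 C with tetracycline; no-wash calcium dye, 30–90 min RT; 10 s baseline; compound pinned; 180 s read; EC80 dopamine added; another 180 s read.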
In the case of `CC(=O)N1c2c(cc(Br)cc2S(=O)(=O)Nc2ccccc2C)CC1C` (stereo not drawn), the inhibition was 4.62%. In the case of `CCOc1cc(Br)c(C2C(C(=O)OC)=C(C)NC3=C2C(=O)c2ccccc23)cc1OCC` (stereo not drawn), the inhibition was 2%. `COc1cccc(Cn2cnc3c2c(=O)n(C)c(=O)n3C)c1` showed an inhibition of -2.93%. In the case of `Cc1c2cnn(CC(=O)NCc3ccc(F)cc3)c(=O)c2c(C)n1Cc1ccccc1Cl`, the inhibition was -7.7%. Molecule `COc1ccc(-c2nc(C)c(CCNC(=O)c3ccccc3Br)s2)cc1OC` has an inhibition of -0.0585%. `CC(=O)N1CCCc2cc(S(=O)(=O)N3CCC(N(C)C(C)C)CC3)ccc21` gave an inhibition of 13.7%. `Cc1ccc(-c2c(C)n3c4c(=O)n(C)c(=O)n(C)c4nc3n2CCCO)cc1` gave an inhibition of -15.5%. Molecule `O=C(CSc1nc2c([nH]c3ccccc32)c(=O)n1-c1ccccc1)Nc1ccccc1F` has an inhibition of 15%. For `COc1ccc(C(=O)Nc2cccc(-c3nc4cccnc4s3)c2C)c(OC)c1`, the inhibition was -9.34%. For `CCOC(=O)c1ccccc1NC(=O)Cn1c(=O)n(Cc2ccc(C(=O)NCc3ccc4c(c3)OCO4)cc2)c(=O)c2ccccc21`, the inhibition was 3.45%. In the case of `CCOc1ccc(NC(=O)C2CCCN(S(=O)(=O)c3ccc(Br)s3)C2)cc1` (stereo not drawn), the inhibition was 2.63%. Work on `Cc1ccccc1NC(=O)N1CCC(CN2CCCC2)CC1` yielded an inhibition of -10.6%. In the case of `Cc1ccc(OCC(=O)OCc2cc(=O)n3c(C)csc3n2)cc1`, the inhibition was -10.8%. Work on `CCC(=O)N1CCc2cc(S(=O)(=O)NC(Cc3ccccc3)C(=O)NCc3ccc(F)cc3)ccc21` (stereo not drawn) yielded an inhibition of -18.5%. With `CCc1cccc(-n2c(=O)c3cccnc3n2CC(=O)Nc2ccccc2C(=O)OC)c1` the inhibition was -9.89%. `Cc1ccc2oc(C(=O)Nc3sc4c(c3C(=O)NCc3ccccc3)CCCC4)cc(=O)c2c1` was tested, and the inhibition was 5.24%. `CCOc1ccc(NC(=O)c2ccc3nc(Cc4ccccc4)oc3c2)cc1` gave an inhibition of 10.8%. Work on `CCC1CN(C(=O)Nc2cc(OC)cc(OC)c2)c2ccccc2S1` (stereo not drawn) yielded an inhibition of -7.07%. `CN(C)S(=O)(=O)c1cccc(NC(=O)CCSc2ccc(Cl)cc2)c1` was tested, and the inhibition was active: 33.1%. For `COc1cccc(NC(=O)C2CCCN2S(=O)(=O)c2ccc3c(c2)n(C)c(=O)c(=O)n3C)c1` (stereo not drawn), the inhibition was -6.66%. Work on `COc1ccc(OC)c(NC(=O)c2nc(SCc3ccccc3F)ncc2Cl)c1` yielded an inhibition of -0.843%. Molecule `O=C(Cn1c(=O)oc2cc(S(=O)(=O)NCc3ccccc3)ccc21)N(CCO)Cc1ccccc1` has an inhibition of 5.9%. `CC1C(=O)N2CCCc3cc(S(=O)(=O)Nc4ccc(Br)cc4F)cc1c32` (stereo not drawn) gave an inhibition of -2.05%. With `CC1CCN(S(=O)(=O)c2ccc(S(=O)(=O)NCc3ccccc3)cc2)CC1` the inhibition was active: 31%. Molecule `CCOc1cc(-c2nnc(SCC(=O)NCc3ccc(C)cc3)nc2-c2ccc(OC)c(OCC)c2)ccc1OC` has an inhibition of 13.1%. Molecule `CCCNC(=O)c1c2c(nc3ccccc13)C(=O)N(C1CCCCC1)C2` has an inhibition of 16.4%. `CCCc1cc(=O)[nH]c2nnc(SCC(=O)Nc3cccc(C)c3)n12` was tested, and the inhibition was -17.5%. Work on `Cc1cccn2c(=O)c(/C=C(\C#N)c3nc4ccccc4n3C)c(Oc3ccc(Cl)cc3)nc12` yielded an inhibition of -2.44%. In the case of `COc1cccc(-c2cc(C(=O)Nc3ccc(F)cc3)[nH]n2)c1`, the inhibition was -7.05%. Molecule `CCNC(=O)c1ccc(-n2c(-c3ccccc3)cc3c2CCCCC3)cc1` has an inhibition of 1.82%. For `Cc1c(C(=O)Nc2cccc(C(F)(F)F)c2)oc2ccc(S(=O)(=O)N(C)C3CCCCC3)cc12`, the inhibition was 19.5%. In the case of `O=C(CC1C(=O)N(c2ccccc2)C(=O)N1CCc1cccs1)Nc1ccc(Cl)cc1` (stereo not drawn), the inhibition was 18.5%. In the case of `COc1ccc(OC)c(NC(=O)[C@H](Cc2ccccc2)N2Cc3ccccc3C2=O)c1`, the inhibition was -8.35%. With `Brc1ccc(Oc2nnnn2-c2ccccc2)cc1` the inhibition was active: 44.7%. Molecule `COc1cccc(CNC(=O)CCc2c(C)nn(-c3ccc(N4CCOCC4)nn3)c2C)c1` has an inhibition of -12.2%. In the case of `CC(=O)Nc1nonc1-c1nnc(SCc2ccc(C)cc2)n1C`, the inhibition was -18.8%. With `N#Cc1sc2nc(-c3ccccc3)cc(-c3ccco3)c2c1N` the inhibition was active: 62.3%. For `COc1ccc(CN2CCN(S(=O)(=O)c3ccccc3)CC2)c(OC)c1`, the inhibition was -6.36%. `CCn1cc(S(=O)(=O)c2ccc(C)cc2C)c(=O)c2cc(F)c(N3CCCC3)cc21` gave an inhibition of 12.8%. Molecule `Cc1ccc(CSc2nnc3[nH]c(=O)cc(C)n23)cc1` has an inhibition of -2.15%. In the case of `CCCn1cc(S(=O)(=O)c2ccc(OC)cc2)c(=O)c2cc(F)c(N3CCCCCC3)cc21`, the inhibition was 3.22%. Molecule `CC(C)Oc1ccc(CNC(=O)C2CCCN(S(=O)(=O)c3ccc4c(ccn4C)c3)C2)cc1` (stereo not drawn) has an inhibition of -27.4%. With `CCCN1C(=O)C2(c3ccccc31)c1c(oc3cc(C)c(C)cc3c1=O)C(=O)N2CCCOC` (stereo not drawn) the inhibition was 10.1%. `CCC(=O)N1c2ccccc2CC1C(=O)NCCc1ccc(OC)cc1OC` (stereo not drawn) was tested, and the inhibition was 8.61%. With `COc1ccc(S(=O)(=O)N(C)C)cc1NC(=O)COC(=O)c1nc2nccc(C)n2n1` the inhibition was active: 40.4%. With `Cc1cc(C)cc(OCCSc2nc(-c3ccc(C(C)(C)C)cc3)nc3cc(=O)[nH]n23)c1` the inhibition was 7.31%. In the case of `COC(=O)c1c(NC(=O)COc2ccc(OC)cc2)sc2c1CCC(C)C2` (stereo not drawn), the inhibition was 7.57%. `COc1cc(NC(=O)CSc2ccc(-c3sc(-c4ccccc4)nc3C)nn2)cc(OC)c1` showed an inhibition of 6.5%. `CCN(CC)C(=O)c1sc2c(c1C)c(=O)n(CCc1ccccc1)c(=O)n2Cc1cccc(Cl)c1` gave an inhibition of 6.43%. For `COc1ccccc1CNc1ccc(-c2nc(-c3cccc(C)c3)no2)cc1[N+](=O)[O-]`, the inhibition was 16.4%. `CCCCOc1ccc(CN2C(=O)C(=O)c3cc(C)ccc32)cc1OC` was tested, and the inhibition was 15.3%. For `CC(C)c1ccc(NC(=O)CSc2n[nH]c(=O)n2-c2cccnc2)cc1`, the inhibition was active: 30.6%. For `CN(C)c1ccc(CNC(=O)c2ccc3c(c2)N(C)C(=O)C2CCCCN32)cc1` (stereo not drawn), the inhibition was 2.33%. Molecule `CCOc1ccccc1N1CC(c2nc3ccccc3n2CCCCOc2cc(C)ccc2C)CC1=O` (stereo not drawn) has an inhibition of 1.26%. `COc1ccc(-n2nc(C(=O)NCc3ccc(F)cc3)c3c4ccccc4n(C)c3c2=O)cc1` gave an inhibition of 14.8%. Work on `CC1=C(c2ccc(C)c(C)c2)S(=O)(=O)N=C1N1CCC(C(=O)N2CCCCC2)CC1` yielded an inhibition of 6.64%. Molecule `CCOc1ccc(CNC(=O)CCc2cn(CC)c3ccccc23)cc1` has an inhibition of 13.5%. `CCc1ccc(NC(=O)C2CCN(S(=O)(=O)c3c(C)noc3/C=C\c3ccc(OC)cc3)CC2)cc1` showed an inhibition of 11.8%. In the case of `OC(COCc1cccs1)CN1CCN(c2cccc(Cl)c2)CC1` (stereo not drawn), the inhibition was active: 43.4%. Work on `O=C(NCCc1ccccc1)c1ccc(CSc2nc3ccncc3n2Cc2cccc(F)c2)cc1` yielded an inhibition of -5.78%. Molecule `COc1cc(C(=O)Nc2ccc(OCc3cc(=O)n4cccc(C)c4n3)cc2)cc(OC)c1OC` has an inhibition of -4.53%. Molecule `CCOC(=O)c1cnc2c(C)cc(C)cc2c1Nc1ccc(OCc2ccccc2)cc1` has an inhibition of 1.41%. Work on `CCCCn1cc(S(=O)(=O)c2ccccc2)c(=O)c2cc(F)c(N3CCC(C)CC3)cc21` yielded an inhibition of 2.1%. In the case of `COc1cc(OC)cc(C(=O)NCC2CCCN(Cc3ccc(SC)cc3)C2)c1` (stereo not drawn), the inhibition was active: 51.3%. Molecule `COc1ccc(NC(=O)C2=C(C)Nc3ncnn3C2c2ccccn2)cc1` (stereo not drawn) has an inhibition of -6.63%. For `CC(=O)Nc1cccc(C(=O)OCC(=O)c2ccccc2Cl)c1`, the inhibition was active: 41.1%. In the case of `CCOC(=O)C1=C(C(F)(F)F)Nc2ncnn2C1c1cccc(OC)c1OC` (stereo not drawn), the inhibition was 6.92%. For `COc1ccc(O)c(CNn2c(-c3ccc(Br)cc3)nc3ccccc3c2=O)c1`, the inhibition was active: 49.9%. With `COc1ccc(NC(=O)CN(C)S(=O)(=O)c2ccc3nc(C)sc3c2)cc1` the inhibition was -22.8%. In the case of `CC(C)CCNC(=O)c1cc(Sc2ccc(F)cc2F)nc2ccccc12`, the inhibition was 0.461%. For `O=C(c1ccc2nc[nH]c2c1)N1CCc2ccccc2C1`, the inhibition was active: 35.1%. `COc1ccc(N2C(=O)CS(=O)(=O)C23C(=O)N(Cc2c(F)cccc2Cl)c2ccccc23)cc1` (stereo not drawn) was tested, and the inhibition was 20.2%. `COc1ccc(/C=N/NS(=O)(=O)c2ccccc2)cc1OS(=O)(=O)c1ccc(C)cc1` was tested, and the inhibition was active: 31.6%. Molecule `O=C(CCCCn1c(=O)c2ccccc2n(Cc2ccccc2F)c1=O)NCc1ccccc1Cl` has an inhibition of 20.8%. `COc1ccc(N(C)S(=O)(=O)c2cccc(C(=O)NCC(c3cccs3)N(C)C)c2)cc1` (stereo not drawn) was tested, and the inhibition was active: 46.1%. `Cc1ccc(NC(=O)CSc2nc3ccc(NC(=O)CCc4ccccc4)cc3s2)c(C)c1` was tested, and the inhibition was -13.3%. For `CCN(CC)C(=O)C1=CC(c2ccc3c(c2)OCO3)=NS(=O)(=O)N1C`, the inhibition was 25.5%. `O=S(=O)(NCCc1nnc2ccc(SCc3c(F)cccc3Cl)nn12)c1ccccc1` was tested, and the inhibition was 0.192%. With `COC(=O)c1ccc(CN(Cc2ccc(OC)c(OC)c2)S(=O)(=O)c2cc(C(=O)Nc3cccc(C)c3)ccc2F)cc1` the inhibition was 28.2%. `CCC(Oc1ccccc1)C(=O)Nc1ccc(OCc2cc(=O)n3ccc(C)cc3n2)cc1` (stereo not drawn) showed an inhibition of -4.7%. Work on `CC(C)Oc1ccc(CNC(=O)c2ccccc2NC(=O)c2nsc3ccccc23)cc1` yielded an inhibition of 8.34%. For `CNS(=O)(=O)c1cn(CC(=O)N2CCN(c3cccc(Cl)c3)CC2)cc1S(=O)(=O)NC`, the inhibition was -8.29%. With `COC(=O)c1[nH]c2cccc(OC)c2c1NC(=O)CCN1CCN(c2ccccc2OC)CC1` the inhibition was active: 83.3%. With `CCCCCn1c(Sc2ccccc2)nc2c1c(=O)[nH]c(=O)n2C` the inhibition was active: 31.4%. For `CCn1cc(C(=O)N2CCN(c3ccccc3OC)CC2)c(=O)c2cc(S(=O)(=O)N3CCC(C)CC3)ccc21`, the inhibition was 2.1%. Work on `Cc1ccc(-n2ncc3c(N4CCCCCC4)ncnc32)cc1C` yielded an inhibition of 5.39%. With `COc1ccccc1CNC(=O)c1ccc2c(c1)N(Cc1ccc(C)cc1)CCS2` the inhibition was 2.11%. In the case of `CCc1ccccc1NC(=O)CN1C(=O)COc2ccc(S(=O)(=O)N3CCCCCC3)cc21`, the inhibition was 0.406%. `CCN(CC)S(=O)(=O)c1ccc2c(c1)N(CC(=O)NCC(C)c1ccccc1)C(=O)CO2` (stereo not drawn) showed an inhibition of -10.6%. For `CC(C)c1nnc(NC(=O)CCC(=O)Nc2ccc3cn[nH]c3c2)s1`, the inhibition was active: 60.6%. With `Cc1c(C(=O)N2CCN(S(=O)(=O)c3ccccc3)CC2)oc2ccccc12` the inhibition was active: 34.4%. `O=C(NCc1ccc(F)cc1)C(=O)NCC(c1cccs1)S(=O)(=O)c1cccs1` (stereo not drawn) was tested, and the inhibition was -22.2%. Molecule `CCN(Cc1ccccc1)S(=O)(=O)c1ccc2[nH]c3c(c2c1)CCCCC3` has an inhibition of -5.75%.
